Laboratory results from the supplement of paper PMC8728848.
The other results are listed elsewhere or left out.

What was measured:
Test in all cases: glycan array binding signal (z-score within array); higher = stronger binding
Settings in all cases: glycan notation: IUPAC condensed, linker removed
[1] = target: Gal(b1-4)GlcNAc(b1-6)GalNAc
Method in brief: (§1)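 The binding signal is a Z-score computed within each array and averaged over linkers. Arrays of the same protein sequence at different concentrations or buffers were also averaged together. Data originate from 3228 arrays in the Consortium for Functional Glycomics database, kept only where the protein sequence was available.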

[2] = target: Gal(b1-4)GlcNAc(b1-6)[Gal(b1-3)]GalNAc
Method in brief: as §1

[3] = target: Gal(b1-4)GlcNAc(b1-6)[Gal(b1-4)GlcNAc(b1-3)]GalNAc
Method in brief: as §1

[4] = target: Gal(b1-4)GlcNAc6P
Method in brief: as §1

[5] = target: Gal(b1-6)Gal
Method in brief: as §1

[6] = target: Gal3S(b1-3)GalNAc
Method in brief: as §1

[7] = target: Gal3S(b1-3)GlcNAc
Method in brief: as §1

[8] = target: Gal3S(b1-3)[Fuc(a1-4)]GlcNAc
Method in brief: as §1

[9] = target: Gal3S(b1-4)Glc
Method in brief: as §1

[10] = target: Gal3S(b1-4)Glc6S
Method in brief: as §1

[11] = target: Gal3S(b1-4)GlcNAc
Method in brief: as §1

[12] = target: Gal3S(b1-4)[Fuc(a1-3)]Glc6S
Method in brief: as §1

[13] = target: Gal3S(b1-4)[Fuc(a1-3)]GlcNAc
Method in brief: as §1

[14] = target: Gal3S(b1-4)[Fuc(a1-3)]GlcNAc6S
Method in brief: as §1

[15] = target: Gal3S4S(b1-4)GlcNAc
Method in brief: as §1

[16] = target: Gal3S6S(b1-4)GlcNAc
Method in brief: as §1

[17] = target: Gal3S6S(b1-4)GlcNAc6S
Method in brief: as §1

[18] = target: Gal4S(b1-4)GlcNAc
Method in brief: as §1

[19] = target: Gal4S6S(b1-4)GlcNAc
Method in brief: as §1

[20] = target: Gal6P(b1-4)GlcNAc
Method in brief: as §1

[21] = target: Gal6S(b1-3)GlcNAc
Method in brief: as §1

[22] = target: Gal6S(b1-3)GlcNAc6S
Method in brief: as §1

[23] = target: Gal6S(b1-4)Glc
Method in brief: as §1

[24] = target: Gal6S(b1-4)Glc6S
Method in brief: as §1

[25] = target: Gal6S(b1-4)GlcNAc
Method in brief: as §1

[26] = target: Gal6S(b1-4)GlcNAc6S
Method in brief: as §1

[27] = target: GalNAc(a1-3)Gal
Method in brief: as §1

[28] = target: GalNAc(a1-3)GalNAc
Method in brief: as §1

[29] = target: GalNAc(a1-3)GalNAc(b1-3)Gal(a1-4)Gal(b1-4)Glc
Method in brief: as §1

[30] = target: GalNAc(a1-3)GalNAc(b1-3)Gal(a1-4)Gal(b1-4)GlcNAc
Method in brief: as §1

[31] = target: GalNAc(b1-3)Gal
Method in brief: as §1

[32] = target: GalNAc(b1-3)Gal(a1-4)Gal(b1-4)GlcNAc
Method in brief: as §1

[33] = target: GalNAc(b1-3)Gal(a1-4)Gal(b1-4)GlcNAc(b1-3)Gal(b1-4)Glc
Method in brief: as §1

[34] = target: GalNAc(b1-3)Gal(a1-6)Gal(b1-4)Glc
Method in brief: as §1

[35] = target: GalNAc(b1-3)GalNAc
Method in brief: as §1

[36] = target: GalNAc(b1-3)GlcNAc
Method in brief: as §1

[37] = target: GalNAc(b1-4)Gal(b1-4)Glc
Method in brief: as §1

[38] = target: GalNAc(b1-4)GlcNAc
Method in brief: as §1

B1: PV12658A-bvu-496-32-496 (Bacteroides vulgatus) (protein)
chain: DLDGAITTPAAVELALNGIYYSLPGNGFNVIFPTVSGSFKAGTMWRQEIVSAGNAVYYSERMLPTLSFSDATEWDADYAVIKNANFLETACNRMSDGEFSGNRRAEVLGEIAYLRALAYFNILVRYCEFWDMNSEYGVVMRNEAPSVSNALKARSSVADSYQYILDQLEIAIEKAPDWKKLSQASKEAAKALKARVLLYAGKYTEAVAAVNDAIDTNSPLPEANYGDVFDKFSTTKEILFARVFDQKDATNTSTRQQCYGNSPTKKQGYWGPTNEYVELVGDDPRADAIFSKVDSLMDSRSSAVAYNLKSVKKLLNDANDMPVIFSRVSELYLIKAEALYRSGASISEAYAPIRKLRERAGAEIILPANNEELETAIFNEWMLELSFENWHEWFAMIRFAGYTEKPDFTRLLALNKTLREALEKEYEKSEAQGDNYYQRIIDRRIDAIPSSEISSNLECKQNPGY
- glycan array binding signal (z-score) [1]: -0.393
- glycan array binding signal (z-score) [2]: -0.428
- glycan array binding signal (z-score) [3]: -0.158
- glycan array binding signal (z-score) [4]: -0.489
- glycan array binding signal (z-score) [5]: -0.415
- glycan array binding signal (z-score) [6]: -0.346
- glycan array binding signal (z-score) [7]: -0.286
- glycan array binding signal (z-score) [8]: -0.367
- glycan array binding signal (z-score) [9]: 0.069
- glycan array binding signal (z-score) [10]: -0.062
- glycan array binding signal (z-score) [11]: -0.25
- glycan array binding signal (z-score) [12]: 0.012
- glycan array binding signal (z-score) [13]: 0.028
- glycan array binding signal (z-score) [14]: -0.008
- glycan array binding signal (z-score) [15]: -0.505
- glycan array binding signal (z-score) [16]: -0.401
- glycan array binding signal (z-score) [17]: -0.016
- glycan array binding signal (z-score) [18]: -0.482
- glycan array binding signal (z-score) [19]: -0.068
- glycan array binding signal (z-score) [20]: 0.101
- glycan array binding signal (z-score) [21]: 0.76
- glycan array binding signal (z-score) [22]: -0.131
- glycan array binding signal (z-score) [23]: 0.183
- glycan array binding signal (z-score) [24]: -0.065
- glycan array binding signal (z-score) [25]: -0.232
- glycan array binding signal (z-score) [26]: 0.339
- glycan array binding signal (z-score) [27]: -0.086
- glycan array binding signal (z-score) [28]: -0.179
- glycan array binding signal (z-score) [29]: -0.265
- glycan array binding signal (z-score) [30]: -0.573
- glycan array binding signal (z-score) [31]: -0.229
- glycan array binding signal (z-score) [32]: -0.363
- glycan array binding signal (z-score) [33]: -0.376
- glycan array binding signal (z-score) [34]: -0.362
- glycan array binding signal (z-score) [35]: -0.286
- glycan array binding signal (z-score) [36]: -0.196
- glycan array binding signal (z-score) [37]: -0.027
- glycan array binding signal (z-score) [38]: 0.829
